{"source": "PubChem BioAssay AID686979", "about": "(National Center for Advancing Translational Sciences (NCATS), 2013)", "note": "Screen size: about 420,000 compounds; about 50,000 (12%) were called active. Inconclusive means that the source gave no clear call. Such entries were picked first, then a sample of the others. The call rests on the fitted dose curve; in most records, active means well fitted inhibition curve with a large enough effect; inconclusive means small, poorly fitted or top-dose-only effect; inactive means flat fitted curve, though single readings scatter. No potency is given beside an inconclusive call; the fits are too rough. On the % scale 0 is the no-effect control and ±100 the full control effect; potency means the concentration at half of the fitted maximal effect; tags describe the fitted curve by direction and shape.", "data": [{"assay": "qHTS for Inhibitors of human tyrosyl-DNA phosphodiesterase 1 (TDP1): qHTS in cells in presence of CPT; further: nearly all actives have a fitted effect of over 55% in size", "settings": "chicken DT40 Tdp1-/-;hTDP1 cells + 20 nM CPT, ATP luminescence, 48 h; activity change, negative = growth inhibition: at 46.2 µM (top of the series) unless noted", "method_in_brief": "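Cell growth measured by CellTiter-Glo luminescence after a minimum 48 h, 37 C compound exposure with 20 nM CPT in Tdp1-knockout DT40 cells stably expressing hTDP1, seeded 400/well; qHTS titration format.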", "values": [{"compound": "COc1ccc(OC)c(NC(=O)c2cc(S(=O)(=O)NCc3ccco3)ccc2F)c1", "activity change, negative = growth inhibition": "inactive: -15.1%"}, {"compound": "Cc1cccc(OCC(=O)Nc2ccc(C(=O)OCc3cc(=O)n4nc(C5CC5)sc4n3)cc2)c1", "activity change, negative = growth inhibition": "inactive: -14.1%"}, {"compound": "O=C(Nc1ccc(-c2nc3ccc(NC(=O)c4cccs4)cc3[nH]2)cc1)c1cccs1", "Potency": "active: 1.64 µM"}, {"compound": "CC(=O)c1c(C)[nH]c(C(=O)OCC(=O)c2ccc3c(c2)NC(=O)CO3)c1C", "activity change, negative = growth inhibition": "inactive: -25.6%"}, {"compound": "Cc1ccc(-c2nc3scc(CCNS(=O)(=O)c4ccc(C)c(C)c4)n3n2)cc1", "Potency": "inconclusive [inhibitor, single point]"}, {"compound": "COc1ccc(-c2cnc(C(O)c3ccc(OC)c(F)c3)[nH]2)cc1", "note": "(stereo unspecified)", "Potency": "inconclusive [inhibitor, partial curve, poor fit]"}, {"compound": "O=C(Nc1nnc(-c2cccs2)o1)c1cccc(F)c1", "Potency": "active: 4.61 µM"}, {"compound": "Cc1cc(C)cc(-n2ncc3c2CCCC3NC(=O)C2(C(N)=O)CC2)c1", "note": "(stereo unspecified)", "Potency": "inconclusive [inhibitor, single point]"}, {"compound": "COc1ccccc1C(=O)NC(=O)COC(=O)C1CCC1", "activity change, negative = growth inhibition": "inactive: 8.84%"}, {"compound": "Cc1ccnc(NC(=O)c2c(-c3ccccc3Cl)noc2C)c1", "Potency": "inconclusive [inhibitor, single point]"}, {"compound": "CN(C)c1ccc(NC(=O)c2sc(SCC(=O)Nc3ccc(Br)cc3)nc2N)cc1", "activity change, negative = growth inhibition": "inactive: -9.56%"}, {"compound": "COc1ccc(NC(=O)CC23CC4CC(C2)CC(n2nnc(C)n2)(C4)C3)cc1", "activity change, negative = growth inhibition": "inactive: -16%"}, {"compound": "CCOC(=O)c1cc(-c2ccc(C)cc2)n(CCC(=O)NCc2ccccc2)c1C", "Potency": "inconclusive [inhibitor, single point]"}, {"compound": "N/C(=N\\OC(=O)Cc1ccccc1)c1ccccc1Cl", "Potency": "inconclusive [inhibitor, full curve, poor fit]"}, {"compound": "CC1(C)Cc2c(c(N3CCOCC3)nc3sc(C(=O)Nc4cccc(Cl)c4)c(N)c23)CO1", "Potency": "active: 18.4 µM"}, {"compound": "COCCCn1c(=O)c2sccc2n(Cc2ccc(C)cc2)c1=O", "Potency": "inconclusive [inhibitor, single point]"}, {"compound": "Cc1cc(OCC(=O)N2CCC(C(=O)O)CC2)c2c(C)c(C)c(=O)oc2c1", "activity change, negative = growth inhibition": "inactive: 12.1%"}, {"compound": "CCO[C@@H]1OC(C(=O)N2CCN(Cc3ccccc3)CC2)=C[C@H](c2ccc(Br)cc2)[C@H]1CCCO", "Potency": "inconclusive [inhibitor, single point]"}, {"compound": "N#Cc1cccc(NC(=O)c2cc(C3CCCCN3S(=O)(=O)c3ccccc3)on2)c1", "note": "(stereo unspecified)", "Potency": "inconclusive [inhibitor, single point]"}, {"compound": "Cc1cc(C)[n+](C)c2ccccc12", "activity change, negative = growth inhibition": "inactive: 2.87%"}, {"compound": "Cc1cccn2c(=O)c(/C=C(\\C#N)C(=O)NCc3ccco3)c(N3CCCC(C)C3)nc12", "note": "(stereo unspecified)", "Potency": "inconclusive [inhibitor, single point]"}, {"compound": "CN(C(=O)c1ccc(NC(=O)Cc2cccc(NC(=O)C3CCCN(C(=O)C4CCC4)C3)c2)cc1)C1CCCC1", "note": "(stereo unspecified)", "Potency": "active: 0.184 µM"}, {"compound": "COc1ccccc1NC(=O)CN1CCN(CC(=O)Nc2ccc(OCc3ccccc3)cc2)CC1", "Potency": "inconclusive [inhibitor, single point]"}, {"compound": "CCOc1cc(/C=N/NC(=O)C(=O)NCc2cccnc2)ccc1O", "activity change, negative = growth inhibition": "inactive: -15.2%"}, {"compound": "COc1ccc2cc(S(=O)(=O)c3ccccc3F)c(=O)oc2c1", "activity change, negative = growth inhibition": "inconclusive: -24.4% [inhibitor]"}, {"compound": "Cn1nc(C(F)(F)F)c(C(=O)Nc2cccc(C(F)(F)F)c2)c1SCc1ccc(Cl)cc1", "Potency": "active: 16.4 µM"}, {"compound": "OC(COCC1COc2ccccc2O1)CN1CCc2ccccc2C1", "note": "(stereo unspecified)", "Potency": "inconclusive [inhibitor, single point]"}, {"compound": "O=C(NCC(c1ccc(F)cc1)N1CCOCC1)c1ccc(OCc2ccccc2)cc1", "note": "(stereo unspecified)", "Potency": "active: 18.4 µM"}, {"compound": "Cc1cc(C)c(NC(=O)c2cc(CN3CCOCC3)on2)c(C)c1", "activity change, negative = growth inhibition": "inactive: -2.2%"}, {"compound": "CCc1ccc(NC(=O)C(Cc2ccccc2)NS(=O)(=O)c2ccc3c(c2)CCN3C(C)=O)cc1", "note": "(stereo unspecified)", "Potency": "inconclusive [inhibitor, single point]"}, {"compound": "CCc1nc2c(OCCOc3ccccc3)cccn2c1N(C)C(=O)c1ccc(C)cc1", "Potency": "inconclusive [inhibitor, single point]"}, {"compound": "COc1cccc(CNC(=O)[C@@H]2CCCN2C(=O)OC(C)(C)C)c1", "activity change, negative = growth inhibition": "inactive: -21.3%"}, {"compound": "Cn1c(SCc2ccc(F)cc2Cl)nc2ccccc2c1=O", "Potency": "inconclusive [inhibitor, single point]"}, {"compound": "Cc1cc(N(C)N)nc(NC(=O)NS(=O)(=O)c2ccccc2Cl)n1", "activity change, negative = growth inhibition": "inactive: -0.806%"}, {"compound": "CCOC(=O)c1ccc(N2C=C(C(=O)OC)C(c3ccc(OC)c(O)c3)C(C(=O)OC)=C2)cc1", "Potency": "inconclusive [inhibitor, single point]"}, {"compound": "CCOc1ccc(Sc2cc(C(=O)NCCCOC)c3ccccc3n2)cc1", "Potency": "active: 20.6 µM"}, {"compound": "CCCC(=O)Nc1ccccc1N1CCN(C(=O)c2ccccc2)CC1", "Potency": "inconclusive [inhibitor, single point]"}, {"compound": "C#CCOc1ccc(C2C(C(=O)OC)=C(C)NC3=C2C(=O)c2ccccc23)cc1OCC", "note": "(stereo unspecified)", "Potency": "inconclusive [inhibitor, single point]"}, {"compound": "CCc1ccc2oc(-c3cc(N)ccc3Cl)nc2c1", "activity change, negative = growth inhibition": "inconclusive: -36.9% [inhibitor]"}, {"compound": "COc1ccc(OC)c(S(=O)(=O)NCCc2ccccc2)c1", "Potency": "inconclusive [inhibitor, single point]"}, {"compound": "CN1CCN(C(=O)c2cnn(-c3cccc(F)c3)c2C2CCN(C(=O)OC(C)(C)C)CC2)CC1", "activity change, negative = growth inhibition": "inactive: 5.2%"}, {"compound": "CN=C1c2cc3cc(OC)ccc3n2CCN1Cc1ccccc1", "Potency": "active: 3.26 µM"}, {"compound": "Cc1cc(C)c(OCCNCc2ccccc2)c(C)c1", "Potency": "inconclusive [inhibitor, single point]"}, {"compound": "COc1ccc(CCNC(=O)c2c(C)nc3ccccn23)cc1", "Potency": "inconclusive [inhibitor, partial curve, poor fit]"}, {"compound": "Cc1ccnc(SCc2cc(=O)c(OC(=O)c3cc([N+](=O)[O-])ccc3Cl)co2)n1", "Potency": "inconclusive [inhibitor, single point]"}, {"compound": "COc1ccc2oc(C(=O)NC3CCCCC3)c(C)c2c1", "Potency": "inconclusive [inhibitor, single point]"}, {"compound": "O=[N+]([O-])c1cc(-c2csc(NCCc3nc4cc(Cl)c(N5CCCCC5)cc4n3CCCO)n2)ccc1Cl", "Potency": "inconclusive [inhibitor, single point]"}, {"compound": "CC(=O)Nc1ccc(CC(=O)NCCC(c2ccccc2)c2ccccc2)cc1", "Potency": "active: 16.4 µM"}, {"compound": "COc1ccc(Nc2ccncc2[N+](=O)[O-])cc1", "activity change, negative = growth inhibition": "inactive: -22.8%"}, {"compound": "COc1cccc(CNC(=O)C2CCCN(S(=O)(=O)c3cccc4nonc34)C2)c1", "note": "(stereo unspecified)", "Potency": "inconclusive [inhibitor, single point]"}, {"compound": "Cc1cc(NC(=O)CSc2nc(N)c(NC(=O)c3ccccc3F)c(=O)[nH]2)no1", "Potency": "inconclusive [inhibitor, partial curve]"}, {"compound": "c1ccc(-c2nnc3sc(-c4csc5c4CCCC5)nn23)cc1", "Potency": "active: 20.6 µM"}, {"compound": "O=C(c1ccc(-n2cccn2)cc1)N1CCc2c([nH]c3ccccc23)C1c1ccccn1", "note": "(stereo unspecified)", "Potency": "inconclusive [inhibitor, single point]"}, {"compound": "CN(C)CCCn1c(=O)n(Cc2ccccc2)c(=O)c2c3c(sc21)CCCCC3", "Potency": "inconclusive [inhibitor, single point]"}, {"compound": "Cc1ccc2sc(N(CCCN(C)C)C(=O)c3ccc(S(=O)(=O)N(C)C4CCCCC4)cc3)nc2c1C", "Potency": "active: 9.2 µM"}, {"compound": "NC(=O)C1CC(=O)N(c2ccc(OCC(=O)N3CCCC3)cc2)C1", "note": "(stereo unspecified)", "activity change, negative = growth inhibition": "inactive: 2.4%"}, {"compound": "CC(=O)OCCSc1c(-c2ccccc2)c2cc(Cl)ccc2[nH]c1=O", "activity change, negative = growth inhibition": "inactive: -26.9%"}, {"compound": "CC(C)(C)OC(=O)C[C@H]1C/C=C\\C[C@H](CC(=O)N[C@H](CO)Cc2ccccc2)C(=O)N[C@H](Cc2ccccc2)COC1=O", "Potency": "active: 23.1 µM"}, {"compound": "O=C(/C=C/c1ccccc1)Nn1c(-c2cccs2)nc2ccccc2c1=O", "Potency": "inconclusive [inhibitor, single point]"}, {"compound": "Cc1[nH]c(-c2ccc3c(c2)OCO3)nc1C(=O)O", "Potency": "active: 10.3 µM"}, {"compound": "Cn1c(C(=O)N2CCC(C(=O)N3CCN(Cc4ccc5c(c4)OCO5)CC3)CC2)cc2sccc21", "activity change, negative = growth inhibition": "inactive: -11.3%"}, {"compound": "CC(C)N1CSC(=S)N(Cc2ccccc2)C1", "Potency": "active: 4.11 µM"}, {"compound": "CCCCn1c(N)c(N(CCOC)C(=O)c2cccc(S(=O)(=O)N(C)c3ccccc3)c2)c(=O)[nH]c1=O", "activity change, negative = growth inhibition": "inactive: 0.657%"}, {"compound": "COc1ccc(N2CCN(C(CNC(=O)c3ccc(C)cc3)c3ccc4c(c3)OCO4)CC2)cc1", "note": "(stereo unspecified)", "Potency": "active: 8.2 µM"}, {"compound": "C/C(=N\\Nc1ncc(Cl)cc1Cl)c1ccc(OC(F)F)cc1", "Potency": "inconclusive [inhibitor, single point]"}, {"compound": "CCOc1ccc(/C=C/c2nc(C#N)c(N(C)C)o2)cc1", "Potency": "active: 16.4 µM"}, {"compound": "Cc1cccc(C(=O)Nc2ccccc2SCC(=O)Nc2ccc(C)c(Cl)c2)c1", "Potency": "inconclusive [inhibitor, single point]"}, {"compound": "CN1C(=O)/C(=C/c2ccc(C(=O)NC3CCCC3)cc2)Oc2ccccc21", "Potency": "active: 13 µM"}, {"compound": "CC(C)CNC(=S)N1CCC(NC(=O)C23CC4CC(CC(C4)C2)C3)CC1", "Potency": "inconclusive [inhibitor, single point]"}, {"compound": "Cc1cc(Cl)c(OCCCNC2CCCC2)c(Br)c1", "Potency": "inconclusive [inhibitor, single point]"}, {"compound": "O=C(c1ccco1)N1CCCC(c2nc3c(nnn3Cc3cccc(Cl)c3)c(=O)[nH]2)C1", "note": "(stereo unspecified)", "Potency": "inconclusive [inhibitor, partial curve, poor fit]"}]}]}
